Results published in the supplement of paper PMC8728848.
The list shows a part of the results.

Experiments:
Experiment in all cases: glycan array binding signal (z-score within array); higher = stronger binding
Details in all cases: glycan notation: IUPAC condensed, linker removed
[1] = molecular target: Gal3S(b1-4)Glc
Procedure, shortened: (§1)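 Negative Z-scores can be read as non-binding. The Z-score is calculated within each array and then averaged across arrays of one protein sequence at different concentrations or buffers and across linkers. Arrays, 3228 in all, were curated from the Consortium for Functional Glycomics database and kept only where the protein sequence was available.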

[2] = molecular target: Gal3S(b1-4)Glc6S
Procedure, shortened: as §1

[3] = molecular target: Gal3S(b1-4)GlcNAc
Procedure, shortened: as §1

[4] = molecular target: Gal3S(b1-4)[Fuc(a1-3)]Glc6S
Procedure, shortened: as §1

[5] = molecular target: Gal3S(b1-4)[Fuc(a1-3)]GlcNAc
Procedure, shortened: as §1

[6] = molecular target: Gal3S(b1-4)[Fuc(a1-3)]GlcNAc6S
Procedure, shortened: as §1

[7] = molecular target: Gal3S4S(b1-4)GlcNAc
Procedure, shortened: as §1

[8] = molecular target: Gal3S6S(b1-4)GlcNAc
Procedure, shortened: as §1

[9] = molecular target: Gal3S6S(b1-4)GlcNAc6S
Procedure, shortened: as §1

[10] = molecular target: Gal4S(b1-4)GlcNAc
Procedure, shortened: as §1

[11] = molecular target: Gal4S6S(b1-4)GlcNAc
Procedure, shortened: as §1

[12] = molecular target: Gal6P(b1-4)GlcNAc
Procedure, shortened: as §1

[13] = molecular target: Gal6S(b1-3)GlcNAc
Procedure, shortened: as §1

[14] = molecular target: Gal6S(b1-3)GlcNAc6S
Procedure, shortened: as §1

[15] = molecular target: Gal6S(b1-4)Glc
Procedure, shortened: as §1

[16] = molecular target: Gal6S(b1-4)Glc6S
Procedure, shortened: as §1

[17] = molecular target: Gal6S(b1-4)GlcNAc
Procedure, shortened: as §1

[18] = molecular target: Gal6S(b1-4)GlcNAc6S
Procedure, shortened: as §1

[19] = molecular target: GalNAc(a1-3)Gal
Procedure, shortened: as §1

[20] = molecular target: GalNAc(a1-3)GalNAc
Procedure, shortened: as §1

[21] = molecular target: GalNAc(a1-3)GalNAc(b1-3)Gal(a1-4)Gal(b1-4)Glc
Procedure, shortened: as §1

[22] = molecular target: GalNAc(a1-3)GalNAc(b1-3)Gal(a1-4)Gal(b1-4)GlcNAc
Procedure, shortened: as §1

[23] = molecular target: GalNAc(b1-3)Gal
Procedure, shortened: as §1

[24] = molecular target: GalNAc(b1-3)Gal(a1-4)Gal(b1-4)GlcNAc
Procedure, shortened: as §1

[25] = molecular target: GalNAc(b1-3)Gal(a1-4)Gal(b1-4)GlcNAc(b1-3)Gal(b1-4)Glc
Procedure, shortened: as §1

[26] = molecular target: GalNAc(b1-3)Gal(a1-6)Gal(b1-4)Glc
Procedure, shortened: as §1

[27] = molecular target: GalNAc(b1-3)GalNAc
Procedure, shortened: as §1

[28] = molecular target: GalNAc(b1-3)GlcNAc
Procedure, shortened: as §1

[29] = molecular target: GalNAc(b1-4)Gal(b1-4)Glc
Procedure, shortened: as §1

[30] = molecular target: GalNAc(b1-4)GlcNAc
Procedure, shortened: as §1

B1: SialidaseA (Arthrobacter ureafaciens) (protein)
chain: MRSNSTSAPSLVRRAATGVLTCAVSIGLLAGLGLPAQAAPTPPNSPTLPPGSFSETNLAADRTAANFFYRIPALTYLGNDVVLAAWDGRPGSAADAPNPNSIVQRRSTDGGKTWGPVQVIAAGHVADASGPRYGYSDPSYIYDAEANKVFAFFVYSKDQGFGGSQFGNDDADRNVISSAVIESSDAGVTWSQPRLITSVTKPGTSKTNPAAGDVRSNFASSGEGIQLKYGPHKGRLIQQYAGDVRQADGSNKIQAYSVYSDDHGVTWHKGANVGDRMDENKTVELSDGRVLLNSRDNANRGYRKVAVSTDGGATYGPVSQDTELPDPANNGAIARMFPNAAQGSADAKKLIFTNANSKTGRENVSARVSCDDGETWPGVRTIRSGFSAYSTVTRLADGKFGVLYEGNYTDNMPFATFDDAWLNYVCAPLAVPAVNIAPSATQEVPVTVTNQEATTLSGATATVYTPSGWSATTVPVPDVAPGASVTVTVALTAPADASGPRSLNAAFTTADGRVSQFTFTATTPVAPQVGLTITGSAPARDVAANPYQAGDVLGYTLNVKSTANVAANSVPLTGTFDSGFLPPAAPNCRYNNLAAGASYNCTTAKHTITAADMERGYFVPEATFSITSTTTPSLTKTVQFTGAAVALRDGLISADISGARTDVGRDLATRPYAAGELVPYAFTVKNTSPFVEQVVPTAGNFSPFLPAGAGNCRYLSLPAGQSYECATPRHAVTAEEVEQGFFVPDTTWEVSAAGQSTRTYRINGGEVDLLVRDAALSATVVAEWKDADGDRFASAGDPVTFTYTVGNAGNVALTGLEAPDAGISLPFLAPGDTATATREHVLTAADVAGGSLAASAFEATARNGSKEVTATAEGQPLELKVQPAQPSKEPELTVQDLEDQTPPFDLGTAFKYRTGQKVSLAGLEYGQWYYVYLNKTGYRLGWMFPTTGDTVEFILPPEVRNGRDDVVVLDKDGRRVSFDRLQVTPKGEKI
[1]
  glycan array binding signal (z-score): -0.495
[2]
  glycan array binding signal (z-score): -0.587
[3]
  glycan array binding signal (z-score): -0.788
[4]
  glycan array binding signal (z-score): -0.279
[5]
  glycan array binding signal (z-score): -0.071
[6]
  glycan array binding signal (z-score): -0.89
[7]
  glycan array binding signal (z-score): -0.684
[8]
  glycan array binding signal (z-score): -0.599
[9]
  glycan array binding signal (z-score): -0.535
[10]
  glycan array binding signal (z-score): -0.725
[11]
  glycan array binding signal (z-score): -0.887
[12]
  glycan array binding signal (z-score): -0.639
[13]
  glycan array binding signal (z-score): -0.689
[14]
  glycan array binding signal (z-score): -0.618
[15]
  glycan array binding signal (z-score): -0.719
[16]
  glycan array binding signal (z-score): -0.606
[17]
  glycan array binding signal (z-score): -0.591
[18]
  glycan array binding signal (z-score): -0.539
[19]
  glycan array binding signal (z-score): -0.631
[20]
  glycan array binding signal (z-score): -0.525
[21]
  glycan array binding signal (z-score): -0.494
[22]
  glycan array binding signal (z-score): -0.321
[23]
  glycan array binding signal (z-score): -0.699
[24]
  glycan array binding signal (z-score): 0.031
[25]
  glycan array binding signal (z-score): -0.337
[26]
  glycan array binding signal (z-score): -0.916
[27]
  glycan array binding signal (z-score): -0.689
[28]
  glycan array binding signal (z-score): -0.637
[29]
  glycan array binding signal (z-score): -0.693
[30]
  glycan array binding signal (z-score): -0.402
